Laboratory results from the supplement of paper PMC10724272.
MIC of invasive clinical C. tropicalis isolates, CLSI broth microdilution (fluconazole 0.12-256 mg/L, up to 1,024 for the azole-resistant cluster and its neighbour group; other ranges not stated); higher = less susceptible. Call: susceptible or wild type [S] / resistant or non-wild type [R] by CLSI breakpoints or cut-offs; intermediate and dose-dependent carry no call. '<=' and '>=' at the end values are inferred; the source marks only some of them. Isolates are numbered anew.

Key:
Test in all cases: CLSI broth microdilution.
[1] = compound: CCC(C)n1ncn(-c2ccc(N3CCN(c4ccc(OCC5COC(Cn6cncn6)(c6ccc(Cl)cc6Cl)O5)cc4)CC3)cc2)c1=O [itraconazole]
[2] = compound: CCCCCOc1ccc(-c2cc(-c3ccc(C(=O)N[C@H]4C[C@@H](O)[C@@H](O)NC(=O)[C@@H]5[C@@H](O)[C@@H](C)CN5C(=O)[C@H]([C@H](O)CC(N)=O)NC(=O)[C@H]([C@H](O)[C@@H](O)c5ccc(O)c(OS(=O)(=O)O)c5)NC(=O)[C@@H]5C[C@@H](O)CN5C(=O)[C@H]([C@@H](C)O)NC4=O)cc3)no2)cc1 [micafungin]
[3] = compound: CCCCCOc1ccc(-c2ccc(-c3ccc(C(=O)N[C@H]4C[C@@H](O)[C@@H](O)NC(=O)[C@@H]5[C@@H](O)[C@@H](C)CN5C(=O)[C@H]([C@@H](C)O)NC(=O)[C@H]([C@H](O)[C@@H](O)c5ccc(O)cc5)NC(=O)[C@@H]5C[C@@H](O)CN5C(=O)[C@H]([C@@H](C)O)NC4=O)cc3)cc2)cc1 [anidulafungin]
[4] = compound: CC[C@@H]([C@H](C)O)n1ncn(-c2ccc(N3CCN(c4ccc(OC[C@@H]5CO[C@@](Cn6cncn6)(c6ccc(F)cc6F)C5)cc4)CC3)cc2)c1=O [posaconazole]
[5] = compound: CC[C@H](C)C[C@H](C)CCCCCCCCC(=O)N[C@H]1C[C@@H](O)[C@@H](NCCN)NC(=O)[C@@H]2[C@@H](O)CCN2C(=O)[C@H]([C@H](O)CCN)NC(=O)[C@H]([C@H](O)[C@@H](O)c2ccc(O)cc2)NC(=O)[C@@H]2C[C@@H](O)CN2C(=O)[C@H]([C@@H](C)O)NC1=O [caspofungin]
[6] = compound: C[C@@H](c1ncncc1F)[C@](O)(Cn1cncn1)c1ccc(F)cc1F [voriconazole]
[7] = compound: C[C@@H]1[C@H](O)[C@@H](C)/C=C/C=C/C=C/C=C/C=C/C=C/C=C/[C@H](O[C@@H]2O[C@H](C)[C@@H](O)[C@H](N)[C@@H]2O)C[C@@H]2O[C@](O)(C[C@@H](O)C[C@@H](O)[C@H](O)CC[C@@H](O)C[C@@H](O)CC(=O)O[C@H]1C)C[C@H](O)[C@H]2C(=O)O [amphotericin B]
[8] = compound: Nc1[nH]c(=O)ncc1F [flucytosine]
[9] = compound: OC(Cn1cncn1)(Cn1cncn1)c1ccc(F)cc1F [fluconazole]

Test System | MIC [1] | MIC [2] | MIC [3] | MIC [4] | MIC [5] | MIC [6] | MIC [7] | MIC [8] | MIC [9]
Candida tropicalis isolate 243 (ERG11 copies: 2, Erg11p: no key change) | 0.12 mg/L [S] | 0.03 mg/L [S] | 0.25 mg/L [S] | 0.06 mg/L [S] | 0.12 mg/L [S] | 0.06 mg/L [S] | 1 mg/L [S] | 0.12 mg/L [S] | 1 mg/L [S]
Candida tropicalis isolate 244 (ERG11 copies: 2, Erg11p: no key change) | 0.25 mg/L [S] | 0.03 mg/L [S] | 0.12 mg/L [S] | 0.25 mg/L [S] | 0.03 mg/L [S] | 0.12 mg/L [S] | 0.5 mg/L [S] | ≤ 0.06 mg/L [S] | 2 mg/L [S]
Candida tropicalis isolate 245 (ERG11 copies: 2, Erg11p: no key change) | 0.06 mg/L [S] | 0.015 mg/L [S] | ≤ 0.015 mg/L [S] | 0.03 mg/L [S] | 0.03 mg/L [S] | ≤ 0.008 mg/L [S] | 0.5 mg/L [S] | ≤ 0.06 mg/L [S] | 0.5 mg/L [S]
Candida tropicalis isolate 246 (ERG11 copies: 2, Erg11p: no key change) | 0.25 mg/L [S] | 0.06 mg/L [S] | 0.12 mg/L [S] | 0.5 mg/L [R] | 0.06 mg/L [S] | 0.25 µg/mL | 1 mg/L [S] | 0.25 mg/L [S] | 2 mg/L [S]
Candida tropicalis isolate 247 (ERG11 copies: 2, Erg11p: no key change) | 0.06 mg/L [S] | 0.008 mg/L [S] | ≤ 0.015 mg/L [S] | 0.03 mg/L [S] | 0.015 mg/L [S] | 0.015 mg/L [S] | 0.25 mg/L [S] | ≤ 0.06 mg/L [S] | 0.5 mg/L [S]
Candida tropicalis isolate 248 (ERG11 copies: 2, Erg11p: no key change) | 0.5 mg/L [S] | 0.06 mg/L [S] | 0.5 µg/mL | 0.5 mg/L [R] | 0.25 mg/L [S] | 0.5 µg/mL | 2 mg/L [S] | 0.12 mg/L [S] | 4 µg/mL
Candida tropicalis isolate 249 (ERG11 copies: 2, Erg11p: no key change) | 0.12 mg/L [S] | 0.03 mg/L [S] | 0.03 mg/L [S] | 0.12 mg/L [S] | 0.03 mg/L [S] | 0.06 mg/L [S] | 1 mg/L [S] | ≤ 0.06 mg/L [S] | 1 mg/L [S]
Candida tropicalis isolate 250 (ERG11 copies: 2, Erg11p: no key change) | 0.25 mg/L [S] | 0.06 mg/L [S] | 0.5 µg/mL | 0.25 mg/L [S] | 0.06 mg/L [S] | 0.12 mg/L [S] | 1 mg/L [S] | 0.12 mg/L [S] | 1 mg/L [S]
Candida tropicalis isolate 251 (ERG11 copies: 2, Erg11p: no key change) | 0.12 mg/L [S] | 0.06 mg/L [S] | 0.12 mg/L [S] | 0.06 mg/L [S] | 0.06 mg/L [S] | 0.03 mg/L [S] | 0.5 mg/L [S] | ≤ 0.06 mg/L [S] | 1 mg/L [S]
Candida tropicalis isolate 252 (ERG11 copies: 2, Erg11p: no key change) | 0.5 mg/L [S] | 0.03 mg/L [S] | 0.03 mg/L [S] | 0.5 mg/L [R] | 0.12 mg/L [S] | 0.25 µg/mL | 0.5 mg/L [S] | ≤ 0.06 mg/L [S] | 4 µg/mL
Candida tropicalis isolate 253 (ERG11 copies: 2, Erg11p: no key change) | ≥ 16 mg/L [R] | 0.06 mg/L [S] | 0.25 mg/L [S] | ≥ 8 mg/L [R] | 0.25 mg/L [S] | ≥ 8 mg/L [R] | 1 mg/L [S] | 0.25 mg/L [S] | 256 mg/L [R]
Candida tropicalis isolate 254 (ERG11 copies: 2, Erg11p: no key change) | 0.06 mg/L [S] | 0.015 mg/L [S] | 0.03 mg/L [S] | 0.06 mg/L [S] | 0.03 mg/L [S] | 0.03 mg/L [S] | 1 mg/L [S] | ≤ 0.06 mg/L [S] | 0.5 mg/L [S]
Candida tropicalis isolate 255 (ERG11 copies: 2, Erg11p: no key change) | 0.5 mg/L [S] | 0.03 mg/L [S] | 0.12 mg/L [S] | 0.25 mg/L [S] | 0.06 mg/L [S] | 0.25 µg/mL | 1 mg/L [S] | ≤ 0.06 mg/L [S] | 2 mg/L [S]
Candida tropicalis isolate 256 (ERG11 copies: 2, Erg11p: no key change) | 0.25 mg/L [S] | 0.03 mg/L [S] | 0.12 mg/L [S] | 0.25 mg/L [S] | 0.25 mg/L [S] | 0.12 mg/L [S] | 0.5 mg/L [S] | 0.12 mg/L [S] | 1 mg/L [S]
Candida tropicalis isolate 257 (ERG11 copies: 2, Erg11p: no key change) | 0.5 mg/L [S] | 0.03 mg/L [S] | ≤ 0.015 mg/L [S] | 0.5 mg/L [R] | 0.015 mg/L [S] | 0.25 µg/mL | 1 mg/L [S] | ≤ 0.06 mg/L [S] | 2 mg/L [S]
Candida tropicalis isolate 258 (ERG11 copies: 2, Erg11p: no key change) | 0.5 mg/L [S] | 0.03 mg/L [S] | 0.12 mg/L [S] | 0.5 mg/L [R] | 0.06 mg/L [S] | 0.25 µg/mL | 1 mg/L [S] | ≤ 0.06 mg/L [S] | 2 mg/L [S]
Candida tropicalis isolate 259 (ERG11 copies: 4, Erg11p: Y132F, S154F (heterozygous)) | 0.5 mg/L [S] | 0.03 mg/L [S] | 0.12 mg/L [S] | 0.5 mg/L [R] | 0.03 mg/L [S] | ≥ 8 mg/L [R] | 1 mg/L [S] | ≤ 0.06 mg/L [S] | 256 mg/L [R]
Candida tropicalis isolate 260 (ERG11 copies: 2, Erg11p: no key change) | 0.12 mg/L [S] | 0.015 mg/L [S] | ≤ 0.015 mg/L [S] | 0.12 mg/L [S] | 0.03 mg/L [S] | 0.06 mg/L [S] | 0.5 mg/L [S] | ≤ 0.06 mg/L [S] | 1 mg/L [S]
